{"source": "the supplement of paper PMC8728848", "test_in_all_cases": "glycan array binding signal (z-score within array); higher = stronger binding", "details_in_all_cases": "glycan notation: IUPAC condensed, linker removed; mutation: Y228A", "key": {"[1]": {"biological_target": "Neu5Ac(a2-6)Gal(b1-4)GlcNAc(b1-6)[Gal(b1-3)GlcNAc(b1-3)]Gal(b1-4)Glc", "method_in_brief": "(§1)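 Glycan array data were curated from 3228 arrays in the Consortium for Functional Glycomics database and kept only where the protein sequence was available. Glycan names were converted to IUPAC-condensed notation, and columns mapping to the same glycan were averaged. The binding signal is a within-array Z-score, averaged across arrays of the same protein sequence at different concentrations or buffers and across linkers. Negative Z-scores can be read as non-binding.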"}, "[2]": {"biological_target": "Neu5Ac(a2-6)Gal(b1-4)GlcNAc(b1-6)[Gal(b1-3)]GalNAc", "method_in_brief": "as §1"}, "[3]": {"biological_target": "Neu5Ac(a2-6)Gal(b1-4)GlcNAc6S", "method_in_brief": "as §1"}, "[4]": {"biological_target": "Neu5Ac(a2-6)GalNAc", "method_in_brief": "as §1"}, "[5]": {"biological_target": "Neu5Ac(a2-6)GalNAc(b1-4)GlcNAc", "method_in_brief": "as §1"}, "[6]": {"biological_target": "Neu5Ac(a2-6)GalNAc(b1-4)GlcNAc6S", "method_in_brief": "as §1"}, "[7]": {"biological_target": "Neu5Ac(a2-6)GlcNAc(b1-4)GlcNAc", "method_in_brief": "as §1"}, "[8]": {"biological_target": "Neu5Ac(a2-6)GlcNAc(b1-4)GlcNAc(b1-4)GlcNAc", "method_in_brief": "as §1"}, "[9]": {"biological_target": "Neu5Ac(a2-8)Neu5Ac", "method_in_brief": "as §1"}, "[10]": {"biological_target": "Neu5Ac(a2-8)Neu5Ac(a2-3)Gal(b1-3)GalNAc(b1-4)[Neu5Ac(a2-3)]Gal(b1-4)Glc", "method_in_brief": "as §1"}, "[11]": {"biological_target": "Neu5Ac(a2-8)Neu5Ac(a2-3)Gal(b1-3)GalNAc(b1-4)[Neu5Ac(a2-8)Neu5Ac(a2-3)]Gal(b1-4)Glc", "method_in_brief": "as §1"}, "[12]": {"biological_target": "Neu5Ac(a2-8)Neu5Ac(a2-3)Gal(b1-4)Glc", "method_in_brief": "as §1"}, "[13]": {"biological_target": "Neu5Ac(a2-8)Neu5Ac(a2-3)Gal(b1-4)GlcNAc", "method_in_brief": "as §1"}, "[14]": {"biological_target": "Neu5Ac(a2-8)Neu5Ac(a2-3)[Gal(b1-3)GalNAc(b1-4)]Gal(b1-4)Glc", "method_in_brief": "as §1"}, "[15]": {"biological_target": "Neu5Ac(a2-8)Neu5Ac(a2-3)[GalNAc(b1-4)]Gal(b1-4)Glc", "method_in_brief": "as §1"}, "[16]": {"biological_target": "Neu5Ac(a2-8)Neu5Ac(a2-8)Neu5Ac", "method_in_brief": "as §1"}, "[17]": {"biological_target": "Neu5Ac(a2-8)Neu5Ac(a2-8)Neu5Ac(a2-3)Gal(b1-4)Glc", "method_in_brief": "as §1"}, "[18]": {"biological_target": "Neu5Ac(a2-8)Neu5Ac(a2-8)Neu5Ac(a2-3)[Gal(b1-3)GalNAc(b1-4)]Gal(b1-4)Glc", "method_in_brief": "as §1"}, "[19]": {"biological_target": "Neu5Ac(a2-8)Neu5Ac(a2-8)Neu5Ac(a2-3)[GalNAc(b1-4)]Gal(b1-4)Glc", "method_in_brief": "as §1"}, "[20]": {"biological_target": "Neu5Ac(a2-8)Neu5Ac(a2-8)Neu5Ac(a2-8)Neu5Ac(a2-3)[GalNAc(b1-4)]Gal(b1-4)Glc", "method_in_brief": "as §1"}, "[21]": {"biological_target": "Neu5Ac(a2-8)Neu5Gc(a2-3)Gal(b1-4)GlcNAc", "method_in_brief": "as §1"}, "[22]": {"biological_target": "Neu5Ac(b2-6)Gal(b1-4)GlcNAc", "method_in_brief": "as §1"}, "[23]": {"biological_target": "Neu5Ac(b2-6)GalNAc", "method_in_brief": "as §1"}, "[24]": {"biological_target": "Neu5Ac9Ac(a2-3)Gal(b1-3)GlcNAc", "method_in_brief": "as §1"}, "[25]": {"biological_target": "Neu5Ac9Ac(a2-3)Gal(b1-4)GlcNAc", "method_in_brief": "as §1"}, "[26]": {"biological_target": "Neu5Ac9Ac(a2-6)Gal(b1-4)GlcNAc", "method_in_brief": "as §1"}, "[27]": {"biological_target": "Neu5Gc(a2-3)Gal(b1-3)GlcNAc", "method_in_brief": "as §1"}, "[28]": {"biological_target": "Neu5Gc(a2-3)Gal(b1-3)[Fuc(a1-4)]GlcNAc", "method_in_brief": "as §1"}, "[29]": {"biological_target": "Neu5Gc(a2-3)Gal(b1-4)Glc", "method_in_brief": "as §1"}, "[30]": {"biological_target": "Neu5Gc(a2-3)Gal(b1-4)GlcNAc", "method_in_brief": "as §1"}, "[31]": {"biological_target": "Neu5Gc(a2-3)Gal(b1-4)GlcNAc(b1-3)Gal(b1-4)GlcNAc(b1-2)Man(a1-3)[Neu5Gc(a2-3)Gal(b1-4)GlcNAc(b1-3)Gal(b1-4)GlcNAc(b1-2)Man(a1-6)]Man(b1-4)GlcNAc(b1-4)GlcNAc", "method_in_brief": "as §1"}, "[32]": {"biological_target": "Neu5Gc(a2-3)Gal(b1-4)[Fuc(a1-3)]GlcNAc", "method_in_brief": "as §1"}, "[33]": {"biological_target": "Neu5Gc(a2-6)Gal(b1-4)GlcNAc", "method_in_brief": "as §1"}, "[34]": {"biological_target": "Neu5Gc(a2-6)GalNAc", "method_in_brief": "as §1"}, "[35]": {"biological_target": "Neu5Gc(a2-8)Neu5Ac(a2-3)Gal(b1-4)GlcNAc", "method_in_brief": "as §1"}, "[36]": {"biological_target": "Neu5Gc(a2-8)Neu5Gc(a2-3)Gal(b1-4)GlcNAc", "method_in_brief": "as §1"}, "[37]": {"biological_target": "Neu5Gc(a2-8)Neu5Gc(a2-3)Gal(b1-4)GlcNAc(b1-3)Gal(b1-4)GlcNAc", "method_in_brief": "as §1"}, "[38]": {"biological_target": "Neu5Gc(a2-8)Neu5Gc(a2-6)Gal(b1-4)GlcNAc", "method_in_brief": "as §1"}, "[39]": {"biological_target": "Neu5Gc(b2-6)Gal(b1-4)GlcNAc", "method_in_brief": "as §1"}}, "note": "The list shows a part of the results."}
{"binder": "Epa1-NP-mutant-Y228A (Candida glabrata), Q6VBJ0 (protein) MILNPALFLNKCVCIYTTLILLLLTNGGYATSSNDISLASKDPTTFPLGCSPDITTPKKGLSMELYSYDFRKKGSYPCWDAAYLDPNYPRTGYKSHRLLAKVDGVTGNINFYYHATKGCTPQLGHLPASYNYPKPLTMTNFTMLLYGYFRPKVTGFHTFTISADDLLFVNFGAGNAFDCCRRDSSADHFGNYQAYAIWGSKTAKDELTVHLDAGVYYPIRLFYNNREADGALSFTFKTESNENTVSDFSEYFFSLDDTEEGCPGLISYDSSCASVKTSKIIGIDYHTETPNENLVPITKTIYHLGIPCTGTTTTPLCGSGFYDPLANKCVTINTSSTSSVTKTTSHTTSKEVSFHSSISSQKTLIPKSIPSPYGPIKSQSIPTEMETSSEISSSEYAFSDVISTPSHSPYTKKHSSLNSSSYTSTVIHSLTSYSISQGIFSTSLSEQNITSKSSTDKFSTATSMSNNITQSSIIISQFSTNNENYTTTSMHTSSDKISTETLNNSISTTTSILFSNSSTILKNNTTIISSDKDTHYHPVNPTIVCSTNKTEIICASITQPSISNSNNHWSSSVLKFNSTTVRSTLPSSAGSNETSINVPFSSSTESNTSTSSTSTSNSKMVRSTLPSSAGSNETSISVPFSSSTESNTSTSSTSTSNSKMVRSTLPSSAGSNETSINVPFSSSTESNTSTSSTSTSNSKTVRSTPFSSAGIIMTSLSQRNNKSASSYASSNSKCYNTADSCRKVHSTPSYLLTSSYTSEGVDYDCSLVSTKLKINDTNCVNNKHTTKSCLKTSVTTTIPTLEIKTARKSSSNTIGLHSYPTSSPNKSISSAPIIGYISSFKTIKTASPSYQTSDLTTITTITSLNNPGSTAVENTHESNDKSRKTSSNDISSKHSVIKETKDAVESSNKSHQTNTLKCSSIIIASSSHNSYESLGGTTLTLTLSKVYSPQNNDTLPFLEISEVNPSRTVLPESSKMMQYLTSTEERNKTARNTIATNIVSISTFHFEGEGNAIRMGYTQLLLMLIGIIVMNIGT", "values": [{"measurement": "glycan array binding signal (z-score)", "setting": "[1]", "result": 0.07}, {"measurement": "glycan array binding signal (z-score)", "setting": "[2]", "result": -0.27}, {"measurement": "glycan array binding signal (z-score)", "setting": "[3]", "result": -0.255}, {"measurement": "glycan array binding signal (z-score)", "setting": "[4]", "result": -0.255}, {"measurement": "glycan array binding signal (z-score)", "setting": "[5]", "result": -0.248}, {"measurement": "glycan array binding signal (z-score)", "setting": "[6]", "result": -0.256}, {"measurement": "glycan array binding signal (z-score)", "setting": "[7]", "result": -0.155}, {"measurement": "glycan array binding signal (z-score)", "setting": "[8]", "result": -0.066}, {"measurement": "glycan array binding signal (z-score)", "setting": "[9]", "result": -0.285}, {"measurement": "glycan array binding signal (z-score)", "setting": "[10]", "result": -0.187}, {"measurement": "glycan array binding signal (z-score)", "setting": "[11]", "result": -0.093}, {"measurement": "glycan array binding signal (z-score)", "setting": "[12]", "result": -0.227}, {"measurement": "glycan array binding signal (z-score)", "setting": "[13]", "result": -0.316}, {"measurement": "glycan array binding signal (z-score)", "setting": "[14]", "result": -0.245}, {"measurement": "glycan array binding signal (z-score)", "setting": "[15]", "result": -0.247}, {"measurement": "glycan array binding signal (z-score)", "setting": "[16]", "result": -0.241}, {"measurement": "glycan array binding signal (z-score)", "setting": "[17]", "result": -0.247}, {"measurement": "glycan array binding signal (z-score)", "setting": "[18]", "result": -0.223}, {"measurement": "glycan array binding signal (z-score)", "setting": "[19]", "result": -0.111}, {"measurement": "glycan array binding signal (z-score)", "setting": "[20]", "result": -0.247}, {"measurement": "glycan array binding signal (z-score)", "setting": "[21]", "result": -0.185}, {"measurement": "glycan array binding signal (z-score)", "setting": "[22]", "result": -0.229}, {"measurement": "glycan array binding signal (z-score)", "setting": "[23]", "result": -0.205}, {"measurement": "glycan array binding signal (z-score)", "setting": "[24]", "result": -0.069}, {"measurement": "glycan array binding signal (z-score)", "setting": "[25]", "result": -0.24}, {"measurement": "glycan array binding signal (z-score)", "setting": "[26]", "result": -0.159}, {"measurement": "glycan array binding signal (z-score)", "setting": "[27]", "result": -0.069}, {"measurement": "glycan array binding signal (z-score)", "setting": "[28]", "result": -0.119}, {"measurement": "glycan array binding signal (z-score)", "setting": "[29]", "result": -0.024}, {"measurement": "glycan array binding signal (z-score)", "setting": "[30]", "result": -0.185}, {"measurement": "glycan array binding signal (z-score)", "setting": "[31]", "result": -0.089}, {"measurement": "glycan array binding signal (z-score)", "setting": "[32]", "result": -0.176}, {"measurement": "glycan array binding signal (z-score)", "setting": "[33]", "result": -0.177}, {"measurement": "glycan array binding signal (z-score)", "setting": "[34]", "result": -0.123}, {"measurement": "glycan array binding signal (z-score)", "setting": "[35]", "result": -0.229}, {"measurement": "glycan array binding signal (z-score)", "setting": "[36]", "result": -0.341}, {"measurement": "glycan array binding signal (z-score)", "setting": "[37]", "result": -0.346}, {"measurement": "glycan array binding signal (z-score)", "setting": "[38]", "result": -0.353}, {"measurement": "glycan array binding signal (z-score)", "setting": "[39]", "result": 0.134}]}
